Source: PubChem BioAssay AID463173 (ICCB-Longwood Screening Facility, Harvard Medical School, 2010)
Out of some 52,000 compounds screened, about 1,700 (3.3%) were called active. No stated cut-off is given here; in the data, active means survival mostly below about 52% (no sharp cut-off); inactive means mostly above about 56%. The list shows a part of the results.

tested on: Wild type; test: S. aureus survival, RN4220 and DeltatarO strains – OD600, teichoic acid synthesis inhibitors, primary screen (AID 463173); conditions: S. aureus RN4220 wild type/DeltatarO growth, OD600, 18 h, hits give low values, screened at 18.75 µg/mL (by protocol)

Row | Structure (SMILES) | survival
1 | Cc1ccccc1OCCn1c(=N)n(C(C)C)c2ccccc21 | inactive: 66%
2 | Cc1cc(C)cc(-n2c(C)nc3cc(C(=O)O)ccc32)c1 | inactive: 69%
3 | CCOc1ccc(C2=CC(c3cccc(Br)c3)n3c(nc4ccccc43)N2)cc1Cl (stereo not given) | inactive: 129%
4 | COc1ccc(-c2noc(-c3ccc(NCc4cccnc4)c([N+](=O)[O-])c3)n2)cc1OC | inactive: 122%
5 | Cc1cccc(OCc2nc(CC(=O)Nc3ccc(C)c(C)c3)cs2)c1 | inactive: 91%
6 | CCCn1c(CN2CCN(c3ccc(OC)cc3)CC2)nc2c1c(=O)[nH]c(=O)n2C | inactive: 87%
7 | COc1cc(-c2cc3n(C)c(C)c(CCC(=O)O)c(=O)n3n2)cc(OC)c1OC | inactive: 78%
8 | C/C=N/N(C)c1cc(=O)n(C)c(=O)[nH]1 | inactive: 112%
9 | CCOc1ccc(NC(=O)C2CCN(C(=O)N3CC(C)Oc4ccc(Cl)cc43)CC2)cc1 (stereo not given) | inactive: 106%
10 | Cc1ccc(CNC(=O)CCC(=O)N2CC3CCCN3c3ccccc32)cc1 (stereo not given) | inactive: 82%
11 | Cc1cc2oc(C(=O)Nc3ccc(S(=O)(=O)N(C)Cc4ccccc4)cc3)cc(=O)c2cc1C | inactive: 84%
12 | CC(C)CC(=O)Nc1nnc(S(=O)(=O)N(CC(C)C)c2ccccc2)s1 | inactive: 111%
13 | O=C(Nc1ccc2oc(-c3cc(Br)ccc3Cl)nc2c1)c1cc2ccccc2o1 | inactive: 102%
14 | CCOc1ccccc1NC(=O)Cn1c(=O)n(CCC(=O)NCc2ccc3c(c2)OCO3)c(=O)c2ccccc21 | inactive: 153%
15 | COc1cc(OC)c(NC(=O)c2csc3c2CCC(C)C3)cc1Cl (stereo not given) | inactive: 129%
16 | COc1ccccc1CNC(=O)c1cc2cc3ccc(Cl)cc3nc2o1 | inactive: 84%
17 | COc1ccc(CCNC(=O)CCc2c(C)nc3c(c(C)nn3-c3ccc(C)c(C)c3)c2C)cc1OC | inactive: 89%
18 | CCc1ccccc1N1CC(c2nc3ccccc3n2CCCOc2ccc(Cl)cc2)CC1=O (stereo not given) | inactive: 29%
19 | Cc1c(CNC2CCCCC2)c(C(=O)O)c(C)n1Cc1c(F)cccc1Cl | inactive: 82%
20 | Cc1ccc(NC(=O)CCCn2c(=O)c3cccn3c3ccccc32)c(Cl)c1 | inactive: 59%
21 | COc1ccccc1N1CCN(c2ccc(NC(=O)c3ccc(C)cc3)cc2C(=O)O)CC1 | inactive: 72%
22 | CCC1(C)Cc2ccccc2-c2[nH]c(=S)[nH]c(=O)c21 (stereo not given) | inactive: 111%
23 | O=C(CCOc1ccccc1)N(Cc1cccnc1)c1nc2c(F)cc(F)cc2s1 | inactive: 99%

Row | Structure (SMILES) | survival
24 | CCOc1ccc(NC(=O)C(CC)n2c(=O)c(-c3ccccc3NC(C)=O)nc3ccccc32)cc1 (stereo not given) | inactive: 64%
25 | COc1ccccc1OCCSc1nc(-c2ccc(C(C)(C)C)cc2)nc2cc(=O)[nH]n12 | inactive: 22%
26 | Cc1ccc(CNC(=O)Cn2cc(S(=O)(=O)Cc3ccccc3Cl)c3ccccc32)cc1 | inactive: 66%
27 | COc1ccc(C(=O)Nc2cc3c(cc2C(=O)c2ccccc2Cl)OCCO3)cc1 | inactive: 98%
28 | O=C(CSC1=Nc2ccccc2C2=NC(CCC(=O)NC3CCCCC3)C(=O)N12)Nc1cccc(C(F)(F)F)c1 (stereo not given) | inactive: 70%
29 | Cc1cc(Cl)ccc1NC(=O)c1cccc(NC(=O)N2CCSc3ncccc32)c1 | inactive: 76%
30 | COc1cc(OC)c(NC(=O)N2CCSc3ccccc32)cc1Cl | inactive: 91%
31 | COc1ccc(CNC(=O)c2cnc3sc(N4CCOCC4)nn3c2=O)cc1 | inactive: 152%
32 | CC(C)(C)OC(=O)N1CCN(c2ccc(NC(=O)c3cc4ccccc4oc3=O)cc2)CC1 | inactive: 104%
33 | Fc1ccc(-n2ncc3c(NC4CCCCCC4)ncnc32)cc1 | inactive: 76%
34 | C/C(=N/OCC(=O)Nc1sc2c(c1C#N)CCCC2)c1cccs1 | inactive: 111%
35 | CCOC(=O)c1c(NC(=O)CCCOc2ccccc2C)sc2c1CCC(C)C2 (stereo not given) | active: 6%
36 | CCOc1ccc(NC(=O)CCc2c(C)nc3nc(C)nn3c2C)cc1 | inactive: 85%
37 | CCOC(=O)c1c(C)oc2nc(C)nc(NCCCN3CCN(c4ccccc4)CC3)c12 | inactive: 76%
38 | CC(O)c1nc2cc3ccccc3cc2[nH]1 (stereo not given) | inactive: 125%
39 | COC(=O)C(CCSC)NC(=O)C1CCN(c2ncnc3c2nc2n3CCCCC2)CC1 (stereo not given) | inactive: 69%
40 | CCOc1ccc(C(=O)N2CCC(c3nnc(-c4ccccc4OC)o3)CC2)cc1 | inactive: 123%
41 | N#Cc1ccccc1CN1C(=O)c2ccccc2Sc2ccc(C(=O)OCc3ccco3)cc21 | inactive: 85%
42 | O=C(CCc1ccccc1)NCc1nc2cccnc2n1Cc1ccc(F)cc1 | active: -6%
43 | CCNC(=O)CC1C(=O)N(c2ccc(F)cc2)C(=O)N1CCOC (stereo not given) | inactive: 80%
44 | COc1ccccc1CNC(=O)c1ccc(Cn2c(SCc3ccccc3)nc3cccnc32)cc1 | active: 10%
45 | CCOC(=O)N1CCc2c(sc3c2c(=O)n(-c2ccccc2)c(=O)n3CC(=O)Nc2ccc(OC)cc2OC)C1 | inactive: 74%
46 | Cn1c(N)c(C#N)c2c(c1=S)CCCC2 | inactive: 98%

Row | Structure (SMILES) | survival
47 | COc1ccc(NC(=O)CN2CCN(Cc3ccccc3)S2(=O)=O)c(OC)c1 | inactive: 128%
48 | CCOc1ccc(OCC)c(NC(=O)c2cc(S(=O)(=O)N3CCCC3)cn2C)c1 | inactive: 87%
49 | CCC(Sc1nc2ncccc2[nH]1)C(=O)Nc1ccccc1F (stereo not given) | inactive: 121%
50 | O=C(O)CNC(=O)OCc1ccccc1 | inactive: 98%
51 | COc1ccc2c(CNCc3cccs3)c(C(=O)O)n(Cc3ccccc3C)c2c1 | inactive: 97%
52 | COc1cc(OC)c(N(C)C(=O)c2cc3c(s2)-c2ccccc2OC3)cc1Cl | inactive: 73%
53 | O=C(OCC1CCCO1)c1ccc2c(c1)N(Cc1ccc(F)cc1)C(=O)c1ccccc1S2(=O)=O (stereo not given) | inactive: 70%
54 | Cc1ccc(Cl)cc1NC(=O)N1CCC(CN2CCc3ccccc3C2)CC1 | inactive: 82%
55 | CCC(=O)NCc1nc2ccccc2n1Cc1ccccc1 | inactive: 106%
56 | CSC1=C(C#N)C(c2ccc(Cl)cc2)CC(=O)N1 (stereo not given) | inactive: 106%
57 | Cc1ccc(S(=O)(=O)N2CCCc3cc(NC(=O)c4cccc(Cl)c4)ccc32)cc1 | inactive: 72%
58 | CCOc1cc(CNc2ccc(O)cc2)cc(Cl)c1OCc1ccccc1 | active: -5%
59 | CCCCOc1ccc(C(=O)Nc2ccc3c(c2)N(C(C)=O)CCC3)cc1 | inactive: 94%
60 | Cn1cccc1-c1cc2n(n1)CCC(=O)N2CC(=O)Nc1ccc(F)cc1Cl | inactive: 63%
61 | COCCCNc1nc2c(-c3cccc(Br)c3)nnn2c2ccccc12 | inactive: 92%
62 | Cc1c(NC(=O)Cc2ccccc2)cccc1-c1nc2cccnc2s1 | inactive: 84%
63 | CCOc1ccc(NC(=O)c2cc3nc(-c4ccc(OC)cc4)cc(C(F)(F)F)n3n2)cc1 | inactive: 144%
64 | Cn1nc(-c2ccccc2F)c2cc(C(=O)N3CCN(c4ccccc4F)CC3)sc21 | inactive: 25%
65 | COC(=O)c1ccc2c(=O)n(CCCCCC(=O)N3CCN(c4cccc(C)c4C)CC3)c(=O)[nH]c2c1 | inactive: 97%
66 | CN1CCN(C(=O)/C(=C/c2cccs2)NC(=O)c2cccs2)CC1 | inactive: 106%
67 | CC1(C)CC(=O)C=C(NCC2CCNCC2)C1 | inactive: 99%
68 | CCS(=O)(=O)N1CCc2cc(C(=O)NCc3ccc(C)cc3)ccc21 | inactive: 88%
69 | O=C(CSc1nc2c([nH]c3ccccc32)c(=O)n1-c1ccc(F)cc1)Nc1ccc2c(c1)OCCO2 | inactive: 82%

Row | Structure (SMILES) | survival
70 | N#CCN(CC#N)C(=O)c1cc(-c2ccccc2)nc2ccccc12 | inactive: 121%
71 | Cc1ccc(S(=O)(=O)N(CC(O)Cn2c3ccccc3c3ccccc32)c2cccc(C(=O)NCCO)c2)cc1 (stereo not given) | inactive: 60%
72 | CCC(Cn1nnc2ccccc2c1=O)NC(=O)Nc1ccccc1Cl (stereo not given) | inactive: 89%
73 | CCOC(=O)c1nnn(-c2nonc2N)c1-c1ccccc1 | inactive: 119%
74 | Cc1cccc(-c2cc(-c3ccccc3)nc(SCC(=O)Nc3ccccc3)c2C#N)c1 | inactive: 94%
75 | Cc1c(C(=O)NCc2ccc(Cl)cc2)sc2nc3n(c(=O)c12)CCC3 | inactive: 101%
76 | Cc1ccc(NC(=O)CC(c2ccc(F)cc2)N2Cc3ccccc3C2=O)cc1C (stereo not given) | inactive: 88%
77 | COCCNC(=O)CN1C(=O)CCn2nc(-c3cn(C)c4ccccc34)cc21 | inactive: 64%
78 | CCOC(=O)N1CCN(CCC(=O)Nc2cccc(F)c2)CC1 | inactive: 74%
79 | Cc1c(C(=O)O)oc2c1-c1nn(Cc3ccccc3Cl)cc1CC2 | inactive: 68%
80 | COc1cc([C@@H]2Nc3c(F)cccc3[C@@H]3C=CC[C@@H]32)cc(Br)c1OC | inactive: 69%
81 | CCc1ccccc1NC(=O)c1ccc(F)c(S(=O)(=O)N2CCN(c3ccccc3OC)CC2)c1 | inactive: 67%
82 | COc1ccc2c(Sc3ccc(C)cc3)c(C(=O)NC(C)c3ccccc3)[nH]c2c1 (stereo not given) | inactive: 89%
83 | CCc1ccc(C(=O)c2cn(CC(=O)NCc3ccc(C)cc3)c3nc(C)ccc3c2=O)cc1 | inactive: 120%
84 | Cc1ccc(C(=O)N(CC#N)CC#N)cc1 | inactive: 101%
85 | Fc1ccccc1CSC1=NCCN1 | inactive: 105%
86 | Cc1ccc(Sc2ccc(N3CCC(C(=O)Nc4ccc(Cl)cc4)CC3)nn2)cc1 | inactive: 76%
87 | Cc1ccc(N2C(=O)C(CC(=O)Nc3ccc(F)cc3)N(Cc3ccc4c(c3)OCO4)C2=O)cc1 (stereo not given) | inactive: 80%
88 | Cc1ccc(CNC(=O)c2ccc3c(c2)NC(=O)C(CS(=O)(=O)Cc2cccc(F)c2)N3)cc1 (stereo not given) | inactive: 117%
89 | CC(=O)c1ccc(NC(=O)c2cc3c(=O)oc4ccc(C)cc4c3s2)cc1 | inactive: 119%
90 | CCOC(=O)CCNC(=O)N1CCN(S(=O)(=O)c2ccc3c(ccn3C)c2)CC1 | inactive: 113%
